assay: soluble on expression in E. coli; label from the status in PepcDB or PDB records

| Sequence | soluble on expression in E. coli |
| --- | --- |
| MAHHHHHHSLKIAEIQLFQHDLPVVNGPYRIASGDVWSLTTTIVKIIAEDGTIGWGETCPVGPTYAEAHAGGALAALEVLASGLAGAEALPLPLHTRMDSLLCGHNYAKSALDIAVHDLWGKRLGVPVHELLGGALTDSVSSYYSLGVMEPDEAARQALEKQREGYSRLQVKLGARPIEIDIEAIRKVWEAVRGTGIALAADGNRGWTTRDALRFSRECPDIPFVMEQPCNSFEDLEAIRPLCHHALYMDEDGTSLNTVITAAATSLVDGFGMKVSRIGGLQHMRAFRDFCAARNLPHTCDDAWGGDIVSAACTHIASTVLPRLMEGAWLAQPYVAEHYDAENGVRIEGGRIRVPQGPGLGLTIDPERFGPPLFSA | soluble |
| MAVRYELAIGLNKGHKTSKIRNVKYTGDKKVKGLRGSRLKNIQTRHTKFMRDLVREVVGHAPYEKRTMELLKVSKDKRALKFLKRRLGTHIRAKRKREELSNILTQLRKAQTHAK | not soluble |
| MGPEIERKSHLAYQVARFEAVAMGFPVQYRQVVVEFYYHGRLDGSSGTLATAVGLLALFTGVEISPRFAITGSLDVFGWPPYCCLFSKMSSGGGNQKSDGQVEEDAAECKFPKEFETTTCDALLTAEVYLLLEHRRQSSESKDEIEEMSEVFIKTLNYARRMSRFKNRETIRAVRAIFSEKHLHKFEVAQIANLCPENAEEAKALVPSLENKIEESELEEVLKDLQSKRTFQ | not soluble |
| MGSDKIHHHHHHLSFLQNVVLVDMITIKKGLELPIAGGPEQVIHNGPAIKHVATLGEEYIGLRPTMKIKVGDKVQKGQVLFEDKKNLGVKYTALASGTILDINRGAQRVLQSVVIQVEGNDSVSFAKYDATALDTLDSQLVRDNLIESGLWTALRTRPFSKVPAVDSSAAGIFVTAIDTQPLAADPVVVIREHKEDFANGLKILARLTEGKVYLCKAPGADIPAANAQVEEFAGVHPAGLVGTHIHFLLPASAKRTVWHIGYQDVIAIGQLFTTGELNTERVVAIAGPKAAKPRLVRTVLGASMVELTAGETLAGNVRLISGSVLNGRTAVGPQGYLGRYHVQVSLLEEGTEKEFLGWVLPGSNKFSITRAFLGHLTPSRLFSMTTSTGGSDRAMVPIGNYERVMPLDILPTMLLRDLVSGDFDGAATLGALELDEEDLALCTFVCPGKYDYGSYLRDCLDTIEREG | not soluble |
| MPISVDKAVIARLKIQGETFEILVDPYLARDFKEGKNVPIEEILATPYVFKDAHKGDKASEKEMEKIFGTSDPYEVAKIILKKGEVQLTAQQRREMLEEKKRQIATIIHKHAVDPRTGYPHPVDRILRAMEEVGVRVDIFKDAEAQVQDVIKALRRVLPLRIEMKVIAVKIPGEYVGRSYGEVRKFGRIKKEEWGSDGSWMFLIEIPGGVEEEFYEKLNALTKGNAQTKLIERKGLLEHHHHHH | soluble |
| MRAKGLLKEYEVVGRKLPSEKEPQTPLYKMRIFAPDNIVAKSRFWYFLRQLKKFKKTTGEIVSIKQVYETSPVKIKNFGIWLRYDSRSGTHNMYREYRDLTVGGAVTQCYRDMGARHRARAHSIQIIKVDSIPAAKTRRVHVKQFHDSKIKFPLVQRVHHKGNRKLFSFRKPRTYFQLEHHHHHH | soluble |
| MRHMFFGVPSQDTQSVAVLSYSFFKFLRIFYHFDLLNIRFKFSTSTVSGCKAIRAERMAIPSNLMQFSEDIIKQLTPEEIDEFREAFMMFDKDGNGTISTKELGIAMRSLGQNPTEQEILEMINEVDIDGNGQIEFPEFCVMMKRMMKETDSEMIREAFRVFDKDGNGVITAQEFRYFMVHMGMQFSEEEVDEMIKEVDVDGDGEIDYEEFVKMMSNQ | not soluble |
| MSLRKINFVTGNVKKLEEVKAILKNFEVSNVDVDLDEFQGEPEFIAERKCREAVEAVKGPVLVEDTSLCFNAMGGLPGPYIKWFLKNLKPEGLHNMLAGFSDKTAYAQCIFAYTEGLGKPIHVFAGKCPGQIVAPRGDTAFGWDPCFQPDGFKETFGEMDKDVKNEISHRAKALELLKEYFQNN | not soluble |
| SNKQFHTGIEIKVWAIACFAPQRQCTEVHLKSFTEQLRKISRDAGMPIQGQPCFCKYAQGADSVEPMFRHLKNTYAGLQLVVVILPGKTPVYAEVKRVGDTVLGMATQCVQMKNVQRTTPQTLSNLCLKINVKLGGVN | soluble |
